In all, about 230,000 compounds went through this assay and fewer than 10 were called active. Inconclusive means that the source gave no clear call. Such entries were picked first, then a sample of the others. Calls follow the shape of the dose curve; as a rule, active = well fitted curve in the direction sought with a large enough effect; inconclusive = small, poorly fitted or top-dose-only effect, or effect the other way, or another doubt; inactive = no such curve, though single readings can be large or run the other way. No potency is given beside an inconclusive call; the fits are too rough.
biological target: Runt-related transcription factor 1 (Homo sapiens) + Core-binding factor subunit beta (Homo sapiens) (UniProt Q01196+Q13951); test: qHTS Assay for Compounds Blocking the Interaction Between CBF-beta and RUNX1 for the Treatment of Acute Myeloid Leukemia; details: AlphaScreen CBFb-His/RUNX1-biotin binding, biochemical; series mostly up to 59.8 µM
Outline: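 Compounds were screened at multiple concentrations against a preformed CBF-beta(His)/RUNX1(biotin) complex (30 nM of each) for 15 min at room temperature, followed by 90 min with nickel and streptavidin beads and AlphaScreen reading.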

Chain of UniProt Q01196 (Q01196 whole entry, looked up): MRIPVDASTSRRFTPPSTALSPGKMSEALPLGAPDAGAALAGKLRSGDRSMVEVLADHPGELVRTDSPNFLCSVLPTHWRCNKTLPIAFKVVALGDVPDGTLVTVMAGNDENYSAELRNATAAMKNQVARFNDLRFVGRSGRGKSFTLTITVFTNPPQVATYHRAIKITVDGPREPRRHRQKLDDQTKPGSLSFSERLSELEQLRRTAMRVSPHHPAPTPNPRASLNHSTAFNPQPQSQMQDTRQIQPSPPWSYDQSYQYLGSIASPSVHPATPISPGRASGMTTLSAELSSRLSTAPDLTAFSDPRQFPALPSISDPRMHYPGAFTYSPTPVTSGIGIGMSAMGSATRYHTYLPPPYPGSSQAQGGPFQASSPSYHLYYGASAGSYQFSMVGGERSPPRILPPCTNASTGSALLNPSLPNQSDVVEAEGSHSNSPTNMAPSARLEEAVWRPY
Chain of UniProt Q01196 (Q13951 whole entry, looked up): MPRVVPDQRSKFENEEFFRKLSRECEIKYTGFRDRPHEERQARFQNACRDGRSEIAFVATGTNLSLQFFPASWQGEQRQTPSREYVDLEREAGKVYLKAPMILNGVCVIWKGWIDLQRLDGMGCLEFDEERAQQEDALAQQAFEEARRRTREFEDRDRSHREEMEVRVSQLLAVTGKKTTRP

Compound | Potency
O=S(=O)(NC1CC1)c1ccc(S(=O)(=O)N2CCCC(c3nc(-c4cccnc4)no3)C2)cc1 (configuration not stated) | inconclusive [inhibitor, partial curve, poor fit]
Cc1ccc(OCCOc2ccc(Cl)cc2Cl)c([N+](=O)[O-])n1 | inactive
O=c1c2nnn(-c3ccc(Cl)cc3)c2ncn1Cc1ccccn1 | inconclusive [activator, single point]
Oc1ccc(COCc2ccccc2)c2cccnc12 | inconclusive [inhibitor, full curve]
C/C(=C\C(=O)Nc1nccs1)c1ccccc1 | inactive
Cc1ncc(N=Nc2ccccc2)c(-c2ccccc2)n1 | inconclusive [inhibitor, single point]
CC[C@@H]1C(c2cccc(Cl)c2)=NN(c2ccccc2)[C@H]1C(=O)N1CCOC1=O | inconclusive [activator, partial curve, poor fit]
Cc1ccc(C(=O)N2CCC(C)CC2)cc1C | inactive
C=C1c2c(Cl)ccc(O)c2C(O)=C2C(=O)[C@@]3(O)C(O)=C(C(N)=O)C(=O)[C@@H](N(C)C)[C@@H]3[C@@H](O)[C@H]12 | inconclusive [inhibitor, partial curve, poor fit]
Nc1ccn([C@@H]2O[C@H](CO)[C@@H](O)C2O)c(=O)n1 (some centres not stated) | inconclusive [inhibitor, single point]
Cc1cc(Nc2nc3ccccc3nc2Cl)n(-c2ccccc2C)n1 | inconclusive [activator, partial curve]
CC(NC(=O)c1ccc(S(=O)(=O)C(F)F)cc1)c1ccccc1 (configuration not stated) | inconclusive [activator, single point]
Cc1c2ccccc2nc2c(F)c(N(C)C)c(F)c(F)c12 | inconclusive [activator, partial curve]
Cc1ccc(N2CCN(c3ccc(C)cc3)C2c2ccncc2)cc1 | inconclusive [inhibitor, partial curve]
COc1ccccc1/C=C/C=N/N1CCN(Cc2ccccc2)CC1 | inconclusive [inhibitor, single point]
c1ccc(-c2ccccn2)nc1 | inactive
COc1ccc(CCN2CCC[C@H](CN3CCc4cc(OC)c(OC)cc4CC3=O)C2)cc1OC | inconclusive [activator, partial curve]
Cc1sc2nc(CN3CCCC3)nc(N3CCN(S(=O)(=O)c4cccs4)CC3)c2c1C | inconclusive [inhibitor, full curve, poor fit]
N/C(=N\OC(=O)CCCCCN1C(=O)c2ccccc2C1=O)c1ccccc1 | inconclusive [activator, single point]
O=C(NCc1cccc(F)c1)c1noc2c1CCCC2 | inconclusive [activator, partial curve]
Cc1ccc(CN2CCN(/N=C\C(Br)=C\c3ccccc3)CC2)cc1 | inconclusive [inhibitor, single point]
O=C(CSc1ccc(-c2ccco2)nn1)Nc1ccccc1 | inconclusive [inhibitor, partial curve]
Cc1ccc(C)c(C(=O)NCCN(C)C)c1 | inactive

Compound | Potency
CCOC(=O)c1c(C)[nH]c2c1-c1ccccc1C(=O)C2=O | inconclusive [activator, single point]
Cc1ccc(CN2CCN(Cc3ccccc3F)CC2)cc1 | inconclusive [inhibitor, single point]
N/C(Cc1cccs1)=N\OC(=O)COc1ccc(Cl)cc1Cl | inconclusive [activator, single point]
O=C(Cn1c(=O)n(Cc2ccco2)c(=O)c2c3c(sc21)CCCCC3)c1ccccc1 | inconclusive [inhibitor, single point]
COc1cc(/C=C/C(C)=O)cc(OC)c1OC | inactive
CCCCC(=O)OCC(=O)Nc1ccc(SC(F)F)cc1 | inconclusive [activator, single point]
COc1ccc(CC(=O)N2N=C(C)CC2(O)c2cccnc2)cc1OC (configuration not stated) | inconclusive [activator, full curve, poor fit]
CCCN(CCC)c1c([N+](=O)[O-])cc(C(F)(F)F)cc1[N+](=O)[O-] | inactive
O=C1C(N2CCOCC2)=C(n2nnc3ccccc32)C(=O)c2ccccc21 | inconclusive [inhibitor, single point]
COc1ccc(C(=O)CC(=O)c2ccc(C(C)(C)C)cc2)cc1 | inconclusive [inhibitor, single point]
Cc1cccc(C2c3[nH]c4ccccc4c3CCN2C(=O)c2nn(C)c(=O)c3ccccc23)n1 (configuration not stated) | inactive
Oc1c(N=NC(=S)Nc2ccccc2F)c2ccccc2n1Cc1ccc(Cl)cc1 | inconclusive [inhibitor, single point]
O=C(CCc1ccccc1)c1ccc2c(c1)OCCCO2 | inconclusive [activator, partial curve]
O=C(O)c1ccc2c3c(cccc13)C(=O)N(OS(=O)(=O)c1ccccc1)C2=O | inconclusive [inhibitor, single point]
CN=c1scc(-c2ccc(F)cc2)n1/N=C/c1ccc(O)c(O)c1 | inconclusive [inhibitor, partial curve]
COc1cccc(F)c1C(=O)NC(=O)Nc1ccc2nc(C)oc2c1 | inconclusive [inhibitor, single point]
O=C(CCc1ccc(CCC(=O)c2cccs2)s1)c1cccs1 | inconclusive [activator, single point]
Cc1ccc(NC(=O)c2c3c(nc4ccccc24)CCC3)cc1S(=O)(=O)N(C)C | inconclusive [inhibitor, single point]
CCN(CC)c1nc(-c2ccccc2)ncc1S(=O)(=O)c1ccc(C)cc1 | inconclusive [activator, partial curve]
COc1ccc(/C(N)=N/OC(=O)CCCc2ccccc2)cc1OC | inconclusive [activator, single point]
c1ccc2cc3c(cc2c1)-c1cccc2cccc-3c12 | inconclusive [activator, full curve, poor fit]
C#CCCCCCCCCCCCC(O)CC(O)COC(C)=O (configuration not stated) | inconclusive [activator, partial curve]
Cc1ccc2cc3c(NC(=O)c4ccco4)nn(CC(C)C)c3nc2c1 | inconclusive [activator, partial curve]

Compound | Potency
CCCOc1ccc(N2C(=O)CC(NCc3ccc(S(N)(=O)=O)cc3)C2=O)cc1 (configuration not stated) | inactive
O=C(COc1ccc([N+](=O)[O-])cc1Cl)NCC1CCCO1 (configuration not stated) | inactive
CC1CCC2C(=O)N3C(CCC(C)C3c3ccc(-c4ccco4)cc3)C(=O)N2C1c1ccc(-c2ccco2)cc1 (configuration not stated) | inconclusive [inhibitor, single point]
Clc1cccc(CN2COc3c(cc(Cl)c4cccnc34)C2)c1 | inconclusive [inhibitor, partial curve]
COc1ccc(N2CCC(CNS(=O)(=O)c3cccc(C(F)(F)F)c3)C2)cc1 (configuration not stated) | inconclusive [inhibitor, partial curve]
CC(C)NCC(O)c1ccc(O)c(O)c1 (configuration not stated) | inactive
Nc1ncnc2c1ncn2[C@H]1C[C@H](O)[C@@H](COP(=O)(O)O)O1 | inconclusive [inhibitor, single point]
Oc1ccccc1-c1nc2cnccn2c1Nc1ccc2c(c1)OCCO2 | inconclusive [inhibitor, single point]
Cc1ccc(N2C(=O)CS/C2=C(\C(Cl)=C(Cl)Cl)[N+](=O)[O-])cc1 | inconclusive [inhibitor, single point]
O=C(N/N=C\c1c(O)ccc2ccccc12)c1ccc(S(=O)(=O)N2CCCCC2)cc1 | inconclusive [inhibitor, single point]
C[n+]1cnn2c1SCC1(COC1)C2 | inactive
O=C(CSc1cccc2cccnc12)N/N=C/c1ccc(O)cc1 | inactive
C/C(=N\Nc1nc(-c2ccc(C)cc2)nc2ccccc12)c1ccc([N+](=O)[O-])cc1 | inconclusive [activator, single point]
Cc1cc(NC(=O)CCSc2ccccc2)ccc1Br | inconclusive [activator, single point]
CCCNC(=O)NS(=O)(=O)c1cnccc1Sc1ccc(Cl)cc1 | inactive
CC(C)C[C@H](NC(=O)c1[nH]cnc1C(=O)Nc1ccccc1)C(=O)OC(C)(C)C | inactive
O=C(COC(=O)c1ccccc1)Nc1ccccc1Sc1ccccc1 | inconclusive [activator, partial curve]
CCCCCN(CCCCC)C(=O)C(CCC(=O)O)NC(=O)c1ccc(Cl)c(Cl)c1 (configuration not stated) | inconclusive [inhibitor, full curve, poor fit]
C/C(=N\NC(=S)NCc1ccccc1)c1ccc2ccccc2c1 | inconclusive [inhibitor, partial curve]
CC(=O)NC(=O)COC(=O)c1ccc2ncsc2c1 | inconclusive [inhibitor, single point]
NC(=O)n1c(O)c(C(=O)c2cccs2)c2cc(Cl)ccc21 | inconclusive [inhibitor, full curve]

Reference: PubChem BioAssay AID1477 (National Center for Advancing Translational Sciences (NCATS), 2009)
